We go through 90 compounds from PubChem BioAssay AID463173 (ICCB-Longwood Screening Facility, Harvard Medical School, 2010).

The campaign covered roughly 52,000 compounds. About 4,300 (8.3%) were called active. Rule as the data show it: active = survival mostly below about 52% (no sharp cut-off); inactive = mostly above about 56%. The list shows a part of the results.

In the experiment the test system is DeltatarO mutant. Description: S. aureus survival, RN4220 and DeltatarO strains – OD600, teichoic acid synthesis inhibitors, primary screen (AID 463173). To be noted: S. aureus RN4220 wild type/DeltatarO growth, OD600, 18 h, stronger effect = lower value, screened at 18.75 µg/mL (by protocol).
As to `CCOC(=O)c1cc(NC(=O)c2ccccc2)c(=O)n2c1oc1ccc(Cl)cc12`, the survival is inactive: 136%.

In the case of `CCOc1ccccc1CNS(=O)(=O)c1ccc(-c2cnc(C3CC3)o2)cc1`, the survival is inactive: 71%.

In the case of `Cc1ccc(-n2nc(CO)c(C(=O)NCc3cccnc3)n2)cc1C`, the survival is inactive: 110%. To `CCN(CC)C(NC(=O)c1ccccc1)C(=O)c1ccccc1` (stereo not given) belongs inactive: 85%; to `COc1ccc(NC(=O)CSC2=Nc3ccccc3C3=NC(CCC(=O)NC4CCCCC4)C(=O)N23)cc1Cl` (stereo not given), inactive: 81%. To `COc1ccc(-c2noc(-c3nnn(-c4ccc(C)cc4C)c3C)n2)cc1` belongs inactive: 117%. Regarding `COc1ccc(S(=O)(=O)c2cn(C)c3cc(N4CCCCCC4)c(F)cc3c2=O)cc1`, the survival is inactive: 86%. In the case of `O=C(Nc1cc(F)ccc1F)C1CCN(C(=O)c2cnn(-c3ccccc3)c2-n2cccc2)CC1` it was inactive: 69%; in that of `Cc1ccc(NC(=O)CSc2nncn2C)c(C)c1`, inactive: 75%.

As to `Cc1ccnc(NC(c2cccc(O)c2)c2ccc3ccc(C)nc3c2O)c1` (stereo not given), the survival was inactive: 68%. In the case of `Cc1ccc(CNC(=O)c2cc3sc(Cl)cc3n2C)cc1`, the survival was inactive: 80%. In the case of `COc1ccc(CN(CCN)C2CC(C)N(C)CC2C)cc1` (stereo not given) it was inactive: 99%; in that of `O=C(CSC1=Nc2ccccc2C2=NC(Cc3ccccc3)C(=O)N12)Nc1cccc(Cl)c1` (stereo not given), inactive: 67%; in that of `CCc1ccc2occ(CC(=O)Nc3c(C(=O)c4ccccc4)oc4ccccc34)c2c1`, inactive: 95%. Take `CCN1C(=O)c2ccccc2Sc2ccc(NC(=O)Nc3cc(C)cc(C)c3)cc21`: the survival is inactive: 67%. In the case of `CCOc1cc(S(=O)(=O)NC2CC2)c(OCC)cc1-n1cnnn1` it was inactive: 81%; in that of `CCCN1CC=C2C(C1)C(c1ccc(C(=O)OC)cc1)C(C#N)=C(N)C2(C#N)C#N` (stereo not given), active: 51%. `CCOC(=O)c1c(C)oc2ccc(N(C(=O)c3ccncc3)S(=O)(=O)c3ccc(F)cc3C)cc12`: the survival is inactive: 79%. To `Cc1ccc(C(C)C)cc1S(=O)(=O)Nc1ccccn1` belongs inactive: 101%. `O=C(Cn1c(=O)n(-c2ccccc2)c(=O)c2c3c(sc21)CCC3)c1ccc(Br)cc1`: the survival was inactive: 76%. To `Cc1cccc(CS(=O)(=O)Cc2ccc(C(=O)NCc3ccc(F)cc3)o2)c1` belongs inactive: 81%; to `COc1cccc(NC(=O)c2cnc(SCC(=O)N3CCCc4ccccc43)n(C)c2=O)c1`, inactive: 68%.

Take `COc1ccccc1N1CCN(S(=O)(=O)c2cc(C(=O)Nc3ccc(Oc4ccccc4)cc3)ccc2F)CC1`: the survival was inactive: 72%. For the compound `COc1cccc(CNC(=O)c2nn(C)c3c2CSc2ccccc2-3)c1`, the survival was inactive: 75%. In the case of `COc1ccc(NC(=O)c2cnc3cc(C)ccn3c2=O)c(OC)c1` it was inactive: 101%.

Regarding `Cc1c(CN2CCCCC2)c(O)n(CCO)c(=O)c1C#N`, the survival is inactive: 99%.

On to `Cc1ccc(C)c(CN2CCCN(Cc3ccccc3C)S2(=O)=O)c1`, for which the survival was inactive: 87%. In the case of `Cc1cc(C)cc(NC(=O)CN2C(=O)c3ccccc3Sc3ccc(C(=O)N4CCCC4)cc32)c1` it was inactive: 79%. To `O=C(CN1C(=O)CCc2cc(Br)ccc21)Nc1ccc(OC(F)(F)F)cc1` belongs inactive: 98%; to `CCOC(=O)c1ccc(Nc2c(-c3ccc(N(C)C)cc3)nc3nc[nH]n23)cc1`, inactive: 102%; to `COc1ccc(CCn2c(-c3ccco3)nc3ccccc3c2=O)cc1OC`, inactive: 60%. In the case of `COc1ccccc1NC(=O)CSc1nnc2c(n1)[nH]c1ccccc12` it was inactive: 77%; in that of `CC1C=CCC2C(=O)N(c3ccc(OC(=O)c4ccco4)cc3)C(=O)C12` (stereo not given), inactive: 83%. Regarding `COc1ccc(NC(=O)CN(C)S(=O)(=O)c2ccc3c(c2)CCC(=O)N3)c(OC)c1`, the survival is inactive: 96%. In the case of `COc1ccc(OC)c(NC(=O)Cn2c(=O)n(CC3CCCO3)c(=O)c3cc(OC)c(OC)cc32)c1` (stereo not given) it was inactive: 90%; in that of `CCOc1ccccc1CNC(=O)CN1C(=O)CSc2ccc(S(=O)(=O)N3CCOCC3)cc21`, inactive: 73%; in that of `Cc1ccc(CNC(=O)c2cnc(N3CCCCC3)c3ccccc23)cc1`, inactive: 80%. Regarding `CCc1ccc(NC(=O)CSc2nc3c(sc4ccccc43)c(=O)n2CCCOC)cc1`, the survival was inactive: 77%.

On to `CCOC(=O)CNc1nc2ccccc2n2c(C)nnc12`, for which the survival is inactive: 83%. To `O=C(c1ccc2c(c1)CCN2S(=O)(=O)c1ccccc1)N1CCN(c2cccc(Cl)c2)CC1` belongs inactive: 45%; to `COc1ccccc1CNC(=O)CCc1c(C)nc2c(c(C)nn2-c2ccc(C)c(C)c2)c1C`, inactive: 69%; to `O=C(CC1CCCCC1)Nc1cccnc1`, inactive: 101%. For `CC1CCC(NC(=O)c2ccc3c(c2)N(Cc2ccccc2)C(=O)c2ccccc2S3(=O)=O)CC1` (stereo not given), the survival was inactive: 115%. In the case of `CC(C)(C)OC(=O)N1CCC(c2c(C(=O)NCc3ccccc3)cnn2-c2ccccc2)CC1` it was inactive: 102%.

For the compound `CCCCn1c(=N)c(S(=O)(=O)c2ccc(Cl)cc2)cc2c(=O)n3cccc(C)c3nc21`, the survival is inactive: 76%. To `CN(c1ccccc1C(=O)N1CCN(Cc2ccc3c(c2)OCO3)CC1)S(C)(=O)=O` belongs inactive: 85%; to `Cc1cccc(Nc2c(-c3cccs3)nc3nc(C)cc(C)n23)c1`, inactive: 151%; to `O=C(NC(=O)c1ccccc1)Nc1ccc(-n2nc(C(F)(F)F)cc2C(F)(F)F)cc1`, inactive: 173%.

In the case of `COc1ccc(C)cc1NC(=O)Cn1c(=O)nc(-c2ccccc2F)c2cc(Cl)ccc21`, the survival was inactive: 84%.

As for `COC(=O)c1cc(NC(=O)C2CCCN(S(=O)(=O)c3c(C)n[nH]c3C)C2)cc(C(=O)OC)c1` (stereo not given), the survival is inactive: 95%.

Consider `O=c1nc2c(-c3ccc(F)cc3Cl)n[nH]n2c2ccccc12`, for which the survival is inactive: 90%.

Turning to `CC1CCCC(NS(=O)(=O)c2cccs2)C1C` (stereo not given), the survival was inactive: 81%.

Consider `COCc1cc(C)nc2sc(C(=O)Nc3ccc(OC(F)(F)F)cc3)c(N)c12`, for which the survival was inactive: 77%. In the case of `Cc1c(C(=O)OCC2CCCCC2)[nH]c2c1C(=O)CC(c1ccc(F)cc1)C2` (stereo not given) it was inactive: 134%; in that of `CCSc1nc2ccc(C)cc2cc1C#N`, inactive: 87%. To `Cc1ccc(C)c(OCCn2cc(C(=O)c3cccs3)c3ccccc32)c1` belongs inactive: 70%. With `CCOC(=O)/C(C#N)=C(\O)c1ccccc1`, the survival is inactive: 86%. As to `O=[N+]([O-])c1ccc(S(=O)(=O)NCc2nc3cccnc3n2Cc2ccccc2Cl)cc1`, the survival is inactive: 68%. To `O=C(c1ccc(F)c(F)c1)N1CCc2ccccc2C1` belongs inactive: 75%.

As for `Cc1cccc(C(=O)N2CCc3cc(CNC(=O)c4ccc(Br)o4)ccc32)c1`, the survival was inactive: 94%.

As for `CCCc1nc2nc(C)c(NS(=O)(=O)c3ccc(F)cc3)c(=O)n2[nH]1`, the survival is inactive: 84%. In the case of `COc1cc(OC)c2c(C)c(CC(=O)NCCc3ccccc3OC)c(=O)oc2c1` it was inactive: 70%; in that of `CCc1ccc(S(=O)(=O)c2cnc3ccc(OC)cc3c2N2CCCC(C)C2)cc1` (stereo not given), inactive: 88%. In the case of `Cc1cc(C(=O)N2CCN(c3ccc(F)cc3)CC2)c2c(C)nn(-c3cccc(Cl)c3C)c2n1` it was inactive: 128%; in that of `N#CC1=C(N)Oc2c(c(=O)oc3ccccc23)C12C(=O)Nc1ccccc12` (stereo not given), inactive: 102%. Regarding `COc1ccc(CNC(=O)Cn2c(=O)nc(-c3ccccc3F)c3cc(Cl)ccc32)cc1OC`, the survival is inactive: 122%. In the case of `N#Cc1cccc(Nc2ncnc3c2cnn3-c2cccc(Cl)c2)c1` it was inactive: 72%.

For `Cc1ccc(Cl)cc1-n1ncc2c(NC3CCCCC3)ncnc21`, the survival was inactive: 54%. To `O=C(CSc1nncn2c1cc1occc12)Nc1ccccc1C(F)(F)F` belongs inactive: 74%; to `CCOC(=O)C1CCCN(S(=O)(=O)c2ccc3c(c2)CCN3C(=O)CC)C1` (stereo not given), inactive: 94%. For `CCc1ccccc1NC(=O)CN(c1cccc(C)c1C)S(C)(=O)=O`, the survival is active: 54%. To `Cc1ccc(C(=O)O)cc1-n1c(C)ccc1-c1ccccc1` belongs inactive: 59%; to `CCOC(=O)c1c(C)[nH]c(CCC(=O)Nc2c(Cl)cc(OC)cc2OC)c1C`, inactive: 90%; to `Cc1cc(C)c(NC(=O)Cn2c(=O)n(Cc3ccc4c(c3)OCO4)c(=O)c3ccccc32)c(C)c1`, inactive: 95%. To `CCC1=Nc2cc(C(=O)NCc3ccccc3Cl)ccc2Sc2ccc(C)cc21` belongs inactive: 69%; to `Cc1nnc(NCc2ccccc2)c2ccccc12`, inactive: 98%; to `O=S1(=O)C=C(Sc2nc3ccccc3s2)c2ccccc21`, active: 4%. As for `CCOC(=O)c1ccc(NC(=O)C(CC)Sc2nnc3c4ccccc4n(C)c3n2)cc1` (stereo not given), the survival was inactive: 143%.

On to `Cc1ccc(C)c(NC(=O)Cn2nnc(C(=O)NCCc3ccccc3)c2N)c1`, for which the survival is inactive: 92%. In the case of `Cc1ccc(Nc2c(-c3ccsc3)nc3cccc(C)n23)cc1` it was active: 25%; in that of `COc1ccc(Cl)cc1NC(=O)CSC1=Nc2ccccc2C2=NC(CC(=O)NC3CCCCC3)C(=O)N12` (stereo not given), inactive: 90%. Turning to `CCOC(=O)CNC(=O)c1ccc(-c2nn(C)c(=O)c3ccccc23)cc1`, the survival is inactive: 69%.

Take `CCc1ccc(NCc2cc3ccc(OC)cc3n(CC(=O)Nc3ccc(C(C)C)cc3)c2=O)cc1`: the survival is inactive: 87%.

In the case of `CCOC(=O)c1ccc2nsnc2c1`, the survival is inactive: 93%.

In the case of `Cc1c(NC(=O)CC(C)C)cccc1-c1nc2cccnc2s1`, the survival is inactive: 107%.

In the case of `O=C(CSc1cn(CCNC(=O)c2ccccc2F)c2ccccc12)Nc1ccccc1F`, the survival is inactive: 80%.

For the compound `COc1cccc(-n2c(SCC(=O)Nc3cccc(Cl)c3)nc3c(oc4ccccc43)c2=O)c1`, the survival is inactive: 85%. To `COc1ccc(/C=C\C(=O)NC2CC(=O)N(c3ccc(F)cc3)C2)cc1OC` (stereo not given) belongs inactive: 77%; to `CCOc1ccccc1CNC(=O)c1ccc(-c2nc(CSc3ccc(C)cc3)c(C)o2)cc1`, inactive: 72%; to `O=C(NCc1ccc(F)cc1)C1CCCN(c2ncnc3onc(-c4ccc(F)cc4)c23)C1` (stereo not given), inactive: 107%.
